Patent US9527820B1, “Diethylammonium salts of phenyl-substituted thiobarbituric acid as anti-diabetic agents” (KING SAUD UNIVERSITY, priority 2016, dated 2016)

What follows are molecules tested against α-glucosidase (assay: in vitro α-glucosidase enzyme inhibition activity). Conditions: read-out: α-Glucosidase Inhibition (IC50 in μM), ± SEM.
`CCn1c(O)c(C(c2ccccc2)c2c(O)n(CC)c(=S)n(CC)c2=O)c(=O)n(CC)c1=S` [Compound 3a, Diethylammonium 5-((1,3-diethyl-6-hydroxy-4-oxo-2-thioxo-1,2,3,4-tetrahydropyrimidin-5-yl)(phenyl)methyl)-1,3-diethyl-6-oxo-2-thioxo-1,2,3,6-tetrahydropyrimidin-4-olate] gave an IC50 of 415.8 ± 4 µM. With `CCn1c(O)c(C(c2ccc(C)cc2)c2c(O)n(CC)c(=S)n(CC)c2=O)c(=O)n(CC)c1=S` [Compound 3c, Diethylammonium 5-((1,3-diethyl-6-hydroxy-4-oxo-2-thioxo-1,2,3,4-tetrahydropyrimidin-5-yl)(p-tolyl)methyl)-1,3-diethyl-6-oxo-2-thioxo-1,2,3,6-tetrahydropyrimidin-4-olate] the IC50 was 200 ± 8.7 µM. Work on `CCn1c(O)c(C(c2ccc(Br)cc2)c2c(O)n(CC)c(=S)n(CC)c2=O)c(=O)n(CC)c1=S` [Compound 3d, Diethylammonium 5-((4-bromophenyl)(1,3-diethyl-6-hydroxy-4-oxo-2-thioxo-1,2,3,4-tetrahydropyrimidin-5-yl)methyl)-1,3-diethyl-6-oxo-2-thioxo-1,2,3,6-tetrahydropyrimidin-4-olate] yielded an IC50 of 26.8 ± 0.17 µM. `CCn1c(O)c(C(c2ccc([N+](=O)[O-])cc2)c2c(O)n(CC)c(=S)n(CC)c2=O)c(=O)n(CC)c1=S` [Compound 3g, Diethylammonium 5-((1,3-diethyl-6-hydroxy-4-oxo-2-thioxo-1,2,3,4-tetrahydropyrimidin-5-yl)(4-nitrophenyl)methyl)-1,3-diethyl-6-oxo-2-thioxo-1,2,3,6-tetrahydropyrimidin-4-olate] was tested, and the IC50 was 219 ± 8.4 µM. `CCn1c(O)c(C(c2ccc(OC)cc2)c2c(O)n(CC)c(=S)n(CC)c2=O)c(=O)n(CC)c1=S` [Compound 3l, Diethylammonium 5-((1,3-diethyl-6-hydroxy-4-oxo-2-thioxo-1,2,3,4-tetrahydropyrimidin-5-yl)(4-methoxyphenyl)methyl)-1,3-diethyl-6-oxo-2-thioxo-1,2,3,6-tetrahydropyrimidin-4-olate] gave an IC50 of 211 ± 10 µM. Molecule “Diethylammonium 5-((1,3-diethyl-6-hydroxy-4-oxo-2-thioxo-1,2,3,4-tetrahydropyrimidin-5-yl)(3-nitrophenyl)methyl)-1,3-diethyl-6-oxo-2-thioxo-1,2,3,6-tetrahydropyrimidin-4-olate [Compound 3h]” has an IC50 of 42.9 ± 0.57 µM. For “Diethylammonium 5-((1,3-diethyl-6-hydroxy-4-oxo-2-thioxo-1,2,3,4-tetrahydropyrimidin-5-yl)(4-(trifluoromethyl)phenyl)methyl)-1,3-diethyl-6-oxo-2-thioxo-1,2,3,6-tetrahydropyrimidin-4-olate [Compound 3n]”, the IC50 was 164 ± 4.5 µM. In the case of “Diethylammonium 5-((1,3-diethyl-6-hydroxy-4-oxo-2-thioxo-1,2,3,4-tetrahydropyrimidin-5-yl)(4-fluorophenyl)methyl)-1,3-diethyl-6-oxo-2-thioxo-1,2,3,6-tetrahydropyrimidin-4-olate [Compound 3m]”, the IC50 is reported as 51.7 ± 2.2 µM. “Diethylammonium 5-((1,3-diethyl-6-hydroxy-4-oxo-2-thioxo-1,2,3,4-tetrahydropyrimidin-5-yl)(m-tolyl)methyl)-1,3-diethyl-6-oxo-2-thioxo-1,2,3,6-tetrahydropyrimidin-4-olate [Compound 3f]” was tested, and the IC50 was 309 ± 6.3 µM. In the case of “Diethylammonium 5-((1,3-diethyl-6-hydroxy-4-oxo-2-thioxo-1,2,3,4-tetrahydropyrimidin-5-yl)(thiophen-2-yl)methyl)-1,3-diethyl-6-oxo-2-thioxo-1,2,3,6-tetrahydropyrimidin-4-olate [Compound 3k]”, the IC50 is reported as 102 ± 2 µM. “Diethylammonium 5-((2,6-dichlorophenyl)(1,3-diethyl-6-hydroxy-4-oxo-2-thioxo-1,2,3,4-tetrahydropyrimidin-5-yl)methyl)-1,3-diethyl-6-oxo-2-thioxo-1,2,3,6-tetrahydropyrimidin-4-olate [Compound 3j]” gave an IC50 of 162 ± 6.2 µM.
